This is a noisy data set.
B1: Ydj1; a variant is named by its letters at X, in order (parent)
chain: MVKETKFYDILGVPVTATDVEIKKAYRKCALKYHPDKNPSEEAAEKFKEASAAYEILSDPEKRDIYDQFGEDGLSGAGGAGGFPGGGFGFGDDIFSQFFGAGGAQRPRGPQRGKDIKHEISASLEELYKGRTAKLALNKQILCKECEGRGGKKGAVKKCTSCNGQGIKFVTRQMGPMIQRFQTECDVCHGTGDIIDPKDRCKSCNGKKVENERKILEVHVEPGMKDGQRIVFKGEADQAPDVIPGDVVFIVSERPHKSFKRDGDDLVYEAEIDLLTAIAGGEFALEHVSGDWLKVGIVPGEVIAPGMRKVIEGKGMPIPKYGGYGNLIIKFTIKFPENHFTSEENLKKLEEILPPRIVPAIPKKATVDECVLADFDPAKYNRTRASRGGANYDSDEEEQGGEGVQCXXX

Variants of: B1
Assay: enrichment factor, frequency at 37 °C / frequency at 25 °C (thermotolerance selection) (ratio); higher = more growth at 37 °C, higher likelihood of farnesylation
Settings: with Saccharomyces cerevisiae ydj1Δ (yWS304); selective temperature 37 °C; reference temperature 25 °C
Description: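 Pooled library of all 8,000 Ydj1-CXXX C-terminal motif variants (native CASQ replaced by C + three variable residues, one codon per amino acid) expressed from a CEN plasmid in S. cerevisiae ydj1Δ (yWS304). The library was grown in SC-Ura liquid to A600 ~2 (~8 generations) at permissive 25 °C or selective 37 °C. Reads from 8 and 7 replicates were pooled and variants counted by NGS. Enrichment factor = frequency at 37 °C / frequency at 25 °C, with a +1 correction; it reports Ydj1-dependent thermotolerance, used as a read-out of farnesylation by yeast FTase.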

Variant	enrichment factor
EAA	1.38
FAA	1.98
AAA	1.72
GAA	1.7
HAA	1.77
IAA	1.63
KAA	1.43
LAA	1.59
MAA	1.35
CAA	2.56
NAA	1.7
PAA	1.55
QAA	1.98
RAA	1.29
SAA	1.12
TAA	1.7
VAA	1.44
WAA	1.51
YAA	4.5
DAA	0.512
EAC	2.29
FAC	1.28
GAC	1.14
HAC	2.7

Variant	enrichment factor
IAC	1.75
AAC	0.906
KAC	0.586
LAC	0.635
MAC	0.791
CAC	1.09
NAC	1.17
PAC	1.26
QAC	1.99
RAC	0.512
SAC	0.676
TAC	1.39
VAC	0.786
WAC	0.756
YAC	4.96
DAC	1.25
EAD	0.206
FAD	0.495
GAD	0.161
HAD	0.613
IAD	1.03
KAD	1.54
LAD	1.17
AAD	0.972

Variant	enrichment factor
MAD	0.393
CAD	1.28
NAD	0.344
PAD	0.459
QAD	0.414
RAD	1.32
SAD	0.538
TAD	1.2
VAD	1.49
WAD	1.46
YAD	0.372
DAD	0.188
EAE	0.174
FAE	0.395
GAE	0.211
HAE	0.384
IAE	1.12
KAE	0.502
LAE	0.908
MAE	0.398
CAE	1.37
NAE	0.207
PAE	0.41
AAE	1.26

Variant	enrichment factor
QAE	0.331
RAE	1.07
SAE	0.255
TAE	0.725
VAE	1.51
WAE	2.03
YAE	0.197
DAE	0.137
EAF	1.45
FAF	2.03
GAF	0.97
HAF	1.8
IAF	2.09
KAF	2.36
LAF	2.38
MAF	3.09
CAF	0.979
NAF	1.24
PAF	0.878
QAF	2.67
RAF	0.993
AAF	2.81
SAF	1.5
TAF	2.32

Variant	enrichment factor
VAF	2.51
WAF	1.45
YAF	1.35
DAF	1.44
EAG	0.879
FAG	1.61
GAG	0.44
HAG	1.65
IAG	1.59
KAG	1.39
LAG	1.29
MAG	1.33
CAG	1.17
NAG	1.46
PAG	1.59
QAG	1.42
RAG	0.937
SAG	1.77
TAG	1.52
VAG	1.22
AAG	1.56
WAG	1.03
YAG	1.75
DAG	0.158

Variant	enrichment factor
EAH	1.11
FAH	1.62
GAH	0.458
HAH	2.05
IAH	1.68
KAH	1.62
LAH	1.47
MAH	1.8
CAH	1.35
NAH	1.75
PAH	1.42
QAH	2.03
RAH	1.21
SAH	2.2
TAH	1.61
VAH	1.89
WAH	1.96
YAH	1.72
AAH	1.81
DAH	0.323
EAI	1.56
FAI	2.63
GAI	1.26
HAI	1.78

Variant	enrichment factor
IAI	3.86
KAI	1.23
LAI	2.59
MAI	2.37
CAI	0.667
NAI	1.78
PAI	1.82
QAI	2.69
RAI	1.2
SAI	1.74
TAI	2.38
VAI	2.19
WAI	0.948
YAI	2.73
DAI	0.608
AAI	1.12
EAK	0.166
FAK	0.103
GAK	0.151
HAK	0.238
IAK	0.354
KAK	0.166
LAK	0.261
MAK	0.131

Variant	enrichment factor
CAK	0.238
NAK	0.157
PAK	0.263
QAK	0.192
RAK	0.101
SAK	0.186
TAK	0.103
VAK	0.518
WAK	0.126
YAK	0.097
DAK	0.191
AAK	0.315
AAL	1.77
EAL	1.51
FAL	2.56
GAL	1.25
HAL	0.927
IAL	1.59
KAL	0.874
LAL	1.42
MAL	1.82
CAL	1.35
NAL	1.09
PAL	1.59

Variant	enrichment factor
QAL	1.74
RAL	1.15
SAL	1.71
TAL	1.39
VAL	1.13
WAL	1.57
YAL	2.14
DAL	0.405
AAM	1.75
EAM	1.33
FAM	3.19
GAM	1.5
HAM	2.22
IAM	2.42
KAM	2.03
LAM	1.73
MAM	1.61
CAM	0.683
NAM	1.3
PAM	1.03
QAM	1.98
RAM	1.36
SAM	1.63
TAM	1.17

Variant	enrichment factor
VAM	0.977
WAM	1.9
YAM	1.8
DAM	1.83
EAN	1.25
AAN	1.76
FAN	1.71
GAN	0.979
HAN	1.76
IAN	1.42
KAN	1.35
LAN	1.51
MAN	1.97
CAN	1.47
NAN	1.37
PAN	1.29
QAN	1.76
RAN	1.37
SAN	1.83
TAN	2.05
VAN	2.84
WAN	1.54
YAN	2.08
DAN	0.255

Variant	enrichment factor
EAP	0.1
AAP	0.0839
FAP	1.14
GAP	0.0834
HAP	0.501
IAP	0.174
KAP	0.17
LAP	0.18
MAP	0.102
CAP	0.407
NAP	0.198
PAP	0.215
QAP	0.2
RAP	0.0673
SAP	0.172
TAP	0.166
VAP	0.121
WAP	1.06
YAP	0.593
DAP	0.193
EAQ	1.7
AAQ	1.53
FAQ	2.12
GAQ	1.31

Variant	enrichment factor
HAQ	2.1
IAQ	1.42
KAQ	1.62
LAQ	1.47
MAQ	1.53
CAQ	1.98
NAQ	1.46
PAQ	1.16
QAQ	1.86
RAQ	1.25
SAQ	1.4
TAQ	2.06
VAQ	2.33
WAQ	1.81
YAQ	4.63
DAQ	1.58
EAR	0.13
AAR	0.117
FAR	0.19
GAR	0.112
HAR	0.169
IAR	0.211
KAR	0.186
LAR	0.13

Variant	enrichment factor
MAR	0.188
CAR	0.137
NAR	0.121
PAR	0.154
QAR	0.12
RAR	0.185
SAR	0.095
TAR	0.154
VAR	0.141
WAR	0.341
YAR	0.109
DAR	0.219
EAS	1.84
FAS	1.83
AAS	1.43
GAS	1.62
HAS	1.87
IAS	1.76
KAS	1.64
LAS	2.12
MAS	1.85
CAS	0.946
NAS	1.98
PAS	1.46

Variant	enrichment factor
QAS	1.78
RAS	1.46
SAS	1.88
TAS	1.86
VAS	1.01
WAS	2.09
YAS	3.76
DAS	1.53
EAT	1.61
FAT	1.9
AAT	1.36
GAT	1.57
HAT	2.4
IAT	2.61
KAT	1.26
LAT	1.91
MAT	1.46
CAT	1.11
NAT	1.79
PAT	1.64
QAT	1.65
RAT	1.36

— the supplement of paper PMC10320760
